Laboratory results from the RNAGym collection of RNA variant scans (doi:10.7554/elife.90254).
The source gives no read counts; variants with many changes may rest on few reads.

B1: LINE1-mini (parent)
chain: GGCAGAGCUCAACACAGCGUGGCAAAGUGGCUGUGGCUAGACUGCC

Variants of: B1
Assay: self-cleavage, relative activity (ratio to wild type); higher = more cleavage; in vitro, sequencing; the parent is a self-cleaving ribozyme
GGCAGAGCUCAACACCGCGUGACAAAGUGGCUCUGGCUAGACUGCC [A16C G22A G33C] gave a self-cleavage of 0.05. Work on GGCAGAGCUCAACACCGCGUGUCAAAGUGGUUGUUGCUAGACUGCC [A16C G22U C31U G35U] yielded a self-cleavage of 0. GGCAGAGCUCAACACGGCGUGGCAUAGUGGCUGUGGCUAGAAUGCC [A16G A25U C42A] gave a self-cleavage of 0.02. With GGCAGAGCUCAACACCGCGUGGCAAAGUGCCUGUGGAUAGACUGUC [A16C G30C C37A C45U] the self-cleavage was 0.06. GGCAGAGCUCAACACCGCGUUGCAAAGUGGCUGUGGCUAGACUGUU [A16C G21U C45U C46U] gave a self-cleavage of 0.04. For GGCAGAGCUCAACACCGCGUGGCAAAGUGACUCUGGCUAGACUGCC [A16C G30A G33C], the self-cleavage was 0.02. GGCAGAGCUCAACACCGCGUGUCAAAGUGGUUGUGGCUAGACUUCC [A16C G22U C31U G44U] showed a self-cleavage of 0.04. With GGCAGAGCUCAACACCGCGUGUCAAAGUGGCUGUGGCUAGACUGCA [A16C G22U C46A] the self-cleavage was 0.05. GGCAGAGCUCAACACCGCGAGGCGAAGUGGCUGUGGCUAGACUGCC [A16C U20A A24G] gave a self-cleavage of 0.03. Work on GGCAGAGCUCAACACCGCGUGGCAAAGUGGCUAUGGCUAGACUGGC [A16C G33A C45G] yielded a self-cleavage of 0.04. Variant GGCAGAGCUCAACACGGCGUGGCAGAGUGGCUGUGGCCAGACUGCC [A16G A25G U38C] has a self-cleavage of 0.01. Variant GGCAGAGCUCAACACCGCGUGGCAAACUGGCUGAGGCUAGACUGCC [A16C G27C U34A] has a self-cleavage of 0.07. With GGCAGAGCUCAACACCGCGCGGCAAAGUGGCUGUGGCUGGACUGCC [A16C U20C A39G] the self-cleavage was 0.03. GGCAGAGCUCAACACCGCGUGUCAAAGUGGUUGUGGCUAGACUGCC [A16C G22U C31U] gave a self-cleavage of 0.01. GGCAGAGCUCAACACCGCGUGGCAAAGAGGCUGUCGCUAGACUGCC [A16C U28A G35C] showed a self-cleavage of 0.01. GGCAGAGCUCAACACCGCGAGGCAAAGUGGCUGUGGCUAGACUGCA [A16C U20A C46A] gave a self-cleavage of 0.07. With GGCAGAGCUCAACACCGCGUGGCAAACUGGCUGUGGCUAGACUUCC [A16C G27C G44U] the self-cleavage was 0.02. Variant GGCAGAGCUCAACACCGCGUGGCAAAGUAGAUGUAGCUAGACUGGC [A16C G29A C31A G35A C45G] has a self-cleavage of 0.01. GGCAGAGCUCAACACCGCGUGGCAAAGUGGCUGUGGCAAGUCUGCC [A16C U38A A41U] showed a self-cleavage of 0.03. Work on GGCAGAGCUCAACACCGCGUGGCAAAGCGGCUGAGGCUAGACUGCC [A16C U28C U34A] yielded a self-cleavage of 0.01. Variant GGCAGAGCUCAACACCGCGCGGCAAAGUGGCUGUGGCUAAACUGCC [A16C U20C G40A] has a self-cleavage of 0.04. With GGCAGAGCUCAACACCGCGUGGCAAAGUGGCUGGGGCUAGGCUGCC [A16C U34G A41G] the self-cleavage was 0.01. GGCAGAGCUCAACACCGCGUGGCAAAGUGGCUGCGGCUAGACUGUC [A16C U34C C45U] showed a self-cleavage of 0.23. GGCAGAGCUCAACACCGCGUGGCAAACUGGCUGUGUCUAGACUGCC [A16C G27C G36U] gave a self-cleavage of 0.05. Work on GGCAGAGCUCAACACCGCGUGGCAAAGUGGCUGCAGCUAGACUGCC [A16C U34C G35A] yielded a self-cleavage of 0.05. For GGCAGAGCUCAACACGGCGUGGCUAAGUGGCUGUGGAUAGACUGCC [A16G A24U C37A], the self-cleavage was 0.04. Variant GGCAGAGCUCAACACCGCGUGGCAAAUGGGCUGUGGCUAGACUGCC [A16C G27U U28G] has a self-cleavage of 0.1. For GGCAGAGCUCAACACCGCGUGGCAAAGUGGCUGUGGCCAGACUGAC [A16C U38C C45A], the self-cleavage was 0.03. Variant GGCAGAGCUCAACACCGCGUGUCAAAGGGGUUGUGGCUAGACUGCC [A16C G22U U28G C31U] has a self-cleavage of 0.02. GGCAGAGCUCAACACCGCGUGGCAAAGUGGCUUUGUCUAGACUGCC [A16C G33U G36U] showed a self-cleavage of 0.03. GGCAGAGCUCAACACGGCGUGGCAGAUUGGCUGUGGCUAGACUGCC [A16G A25G G27U] gave a self-cleavage of 0.06. GGCAGAGCUCAACACCGCGUGGCAAAGUGGCCGUGGCAAGACUGCC [A16C U32C U38A] gave a self-cleavage of 0.01. For GGCAGAGCUCAACACCGCGUGGCAAAGUGGCUGGUGCUAGACUUCC [A16C U34G G35U G44U], the self-cleavage was 0.04. Variant GGCAGAGCUCAACACGGCGUGGCUAAGUGGCUGUUGCUAGUCUGCC [A16G A24U G35U A41U] has a self-cleavage of 0.07. Work on GGCAGAGCUCAACACGGCGUGGCAGAGUGUCUGUGGCUAGAGUGCC [A16G A25G G30U C42G] yielded a self-cleavage of 0.01. Variant GGCAGAGCUCAACACCGCGUGGCAAAGUGGCUAUGGCUAUACUGCC [A16C G33A G40U] has a self-cleavage of 0.04. Work on GGCAGAGCUCAACACCGCGUGGCAAAGUGGCUGGGGCUAGACCGCA [A16C U34G U43C C46A] yielded a self-cleavage of 0.02. In the case of GGCAGAGCUCAACACCGCGUGUCAAAGUGGCUGUGGCUAGACUGAC [A16C G22U C45A], the self-cleavage is reported as 0.03. GGCAGAGCUCAACACCGCGUGGCAAAGAGGCUGUGGCUAUACUGCC [A16C U28A G40U] gave a self-cleavage of 0.05. Variant GGCAGAGCUCAACACCGCGUGACAAAGUCGCUGUGGCUAGACUGCC [A16C G22A G29C] has a self-cleavage of 0.94. Work on GGCAGAGCUCAACACCGCGUGGCAAAUUGUCUGAGGCUAGACUGCC [A16C G27U G30U U34A] yielded a self-cleavage of 0.07. GGCAGAGCUCAACACCGCGAGGCAGAGUGGCUGUGCCUAGUCUGCC [A16C U20A A25G G36C A41U] showed a self-cleavage of 0.02. GGCAGAGCUCAACACCGCGUGGCAAAGUGGCUGCGGCUAGACUGCG [A16C U34C C46G] gave a self-cleavage of 0.02. For GGCAGAGCUCAACACCGCGUGGCAAAUUGGCUGUGACUAGACUGCC [A16C G27U G36A], the self-cleavage was 0.04. For GGCAGAGCUCAACACCGCGUGACAGAGUGGCGGUGGCUGGACUGCC [A16C G22A A25G U32G A39G], the self-cleavage was 0.02. With GGCAGAGCUCAACACCGCGUGGCAAAGUGGCUGGUGCUAGACUGCG [A16C U34G G35U C46G] the self-cleavage was 0. Work on GGCAGAGCUCAACACCGCGCGGCAAAGUGGCUGUGGAUAGUCUCAC [A16C U20C C37A A41U G44C C45A] yielded a self-cleavage of 0.08. With GGCAGAGCUCAACACCGCGAGGCAAAGUGGGUGUGGCUAGACUGCC [A16C U20A C31G] the self-cleavage was 0.03. GGCAGAGCUCAACACCGCGUGGCAAAGUGACUGUGGGUAGACUGCC [A16C G30A C37G] showed a self-cleavage of 0.01. With GGCAGAGCUCAACACGGCGUGGCACAGUGGCGGUGGCUAGACUGCC [A16G A25C U32G] the self-cleavage was 0.01. GGCAGAGCUCAACACCGCGUGGCAAAGUGGCUGGGGCUAGACUUCC [A16C U34G G44U] showed a self-cleavage of 0.03. Variant GGCAGAGCUCAACACCGCGUGGCAAAGUUGCUGUGGCUAGACUGCG [A16C G29U C46G] has a self-cleavage of 0.15. With GGCAGAGCUCAACACCGCGUGGCAAAGUGGCUGAGGCUAGAAUGCC [A16C U34A C42A] the self-cleavage was 0.03. For GGCAGAGCUCAACACCGCGUGACAAAGAGGCUGUGGCUAGACUGCC [A16C G22A U28A], the self-cleavage was 0.28. Work on GGCAGAGCUCAACACCGCGUGGCAAAGUGCCUGUGGCUAGACCGCC [A16C G30C U43C] yielded a self-cleavage of 0.36. Variant GGCAGAGCUCAACACCGCGUGGCAAAUUGGCUGUGGUUAGACUGCC [A16C G27U C37U] has a self-cleavage of 0.37.
